Test results from publication PMC5460038.
Changes are numbered by the printed parent chain. No constants are given. Whether binding was seen depends on the method and setting. Binding seen in cells or lysates may run through a third protein. Some entries that bind do so weakly or less than the wild type. For part of these data: Sequences can lack the tags named with a protein. Each block holds one molecule with its values, some of them ahead of it.

Amino acid sequences for entries named in this document (tags omitted).
UniProt Q5MNZ6: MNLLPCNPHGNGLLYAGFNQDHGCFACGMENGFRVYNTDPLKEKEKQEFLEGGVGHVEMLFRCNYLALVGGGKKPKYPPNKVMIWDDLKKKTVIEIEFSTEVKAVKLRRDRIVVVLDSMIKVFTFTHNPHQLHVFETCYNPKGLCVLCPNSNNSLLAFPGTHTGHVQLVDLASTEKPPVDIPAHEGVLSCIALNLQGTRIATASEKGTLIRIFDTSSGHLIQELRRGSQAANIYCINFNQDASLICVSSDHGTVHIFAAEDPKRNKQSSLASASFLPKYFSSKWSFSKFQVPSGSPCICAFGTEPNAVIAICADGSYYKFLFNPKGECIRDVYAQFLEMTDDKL
UniProt Q2TAZ0: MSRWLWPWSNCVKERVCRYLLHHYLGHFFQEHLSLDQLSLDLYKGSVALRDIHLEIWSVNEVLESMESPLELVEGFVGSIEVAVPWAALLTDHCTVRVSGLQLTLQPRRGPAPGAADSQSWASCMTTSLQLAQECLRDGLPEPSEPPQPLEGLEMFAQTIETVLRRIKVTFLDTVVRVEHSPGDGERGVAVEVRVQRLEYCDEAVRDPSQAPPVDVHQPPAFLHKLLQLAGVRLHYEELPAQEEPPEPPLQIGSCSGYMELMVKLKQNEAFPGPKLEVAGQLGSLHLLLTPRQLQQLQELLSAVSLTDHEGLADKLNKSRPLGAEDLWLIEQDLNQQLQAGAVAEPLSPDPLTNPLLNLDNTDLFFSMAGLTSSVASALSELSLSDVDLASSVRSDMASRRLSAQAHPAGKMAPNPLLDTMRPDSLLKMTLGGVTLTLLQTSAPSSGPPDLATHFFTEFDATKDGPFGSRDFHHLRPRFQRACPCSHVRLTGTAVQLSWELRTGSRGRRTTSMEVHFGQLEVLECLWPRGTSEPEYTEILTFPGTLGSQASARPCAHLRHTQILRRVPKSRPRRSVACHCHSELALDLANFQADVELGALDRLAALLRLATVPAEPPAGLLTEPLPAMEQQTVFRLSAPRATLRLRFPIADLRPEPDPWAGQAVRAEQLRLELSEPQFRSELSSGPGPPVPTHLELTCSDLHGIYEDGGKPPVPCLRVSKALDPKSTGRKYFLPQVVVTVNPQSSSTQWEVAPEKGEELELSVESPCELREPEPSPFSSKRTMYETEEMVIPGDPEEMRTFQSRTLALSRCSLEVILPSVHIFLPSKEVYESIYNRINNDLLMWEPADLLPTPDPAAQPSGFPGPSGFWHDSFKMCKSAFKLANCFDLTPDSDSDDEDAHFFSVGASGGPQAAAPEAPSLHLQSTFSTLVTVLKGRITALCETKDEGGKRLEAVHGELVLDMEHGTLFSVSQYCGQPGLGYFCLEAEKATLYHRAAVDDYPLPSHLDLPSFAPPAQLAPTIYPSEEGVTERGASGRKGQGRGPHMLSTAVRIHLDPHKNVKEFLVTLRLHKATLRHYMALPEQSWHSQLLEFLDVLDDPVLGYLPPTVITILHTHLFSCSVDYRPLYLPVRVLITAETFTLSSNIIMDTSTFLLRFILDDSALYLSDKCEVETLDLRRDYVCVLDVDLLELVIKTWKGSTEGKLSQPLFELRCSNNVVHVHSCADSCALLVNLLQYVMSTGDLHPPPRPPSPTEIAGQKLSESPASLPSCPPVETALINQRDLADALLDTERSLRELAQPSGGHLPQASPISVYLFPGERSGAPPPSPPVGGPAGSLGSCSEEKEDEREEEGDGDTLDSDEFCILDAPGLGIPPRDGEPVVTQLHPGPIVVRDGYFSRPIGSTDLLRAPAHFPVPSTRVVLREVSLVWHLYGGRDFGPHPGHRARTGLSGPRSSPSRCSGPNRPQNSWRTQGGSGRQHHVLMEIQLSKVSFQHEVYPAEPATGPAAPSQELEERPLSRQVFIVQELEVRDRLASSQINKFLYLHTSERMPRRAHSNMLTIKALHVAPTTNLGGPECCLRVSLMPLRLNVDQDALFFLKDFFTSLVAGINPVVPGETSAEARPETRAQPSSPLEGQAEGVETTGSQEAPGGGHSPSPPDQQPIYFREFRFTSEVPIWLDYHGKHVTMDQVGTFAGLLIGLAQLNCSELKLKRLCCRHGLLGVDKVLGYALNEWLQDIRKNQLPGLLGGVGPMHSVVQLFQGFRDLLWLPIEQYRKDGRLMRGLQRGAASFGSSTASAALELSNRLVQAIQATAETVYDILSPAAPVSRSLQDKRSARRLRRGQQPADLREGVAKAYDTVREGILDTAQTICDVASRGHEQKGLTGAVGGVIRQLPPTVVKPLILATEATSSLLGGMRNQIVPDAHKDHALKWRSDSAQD
UniProt Q9Y266: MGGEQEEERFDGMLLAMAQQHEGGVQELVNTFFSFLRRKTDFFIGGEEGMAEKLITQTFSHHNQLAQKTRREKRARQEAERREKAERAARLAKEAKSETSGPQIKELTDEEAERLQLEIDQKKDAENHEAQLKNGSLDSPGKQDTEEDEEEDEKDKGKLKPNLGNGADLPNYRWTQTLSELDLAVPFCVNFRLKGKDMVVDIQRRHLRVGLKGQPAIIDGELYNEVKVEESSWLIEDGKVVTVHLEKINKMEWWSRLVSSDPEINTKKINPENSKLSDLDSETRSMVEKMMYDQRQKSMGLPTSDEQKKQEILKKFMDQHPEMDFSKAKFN
UniProt P54619: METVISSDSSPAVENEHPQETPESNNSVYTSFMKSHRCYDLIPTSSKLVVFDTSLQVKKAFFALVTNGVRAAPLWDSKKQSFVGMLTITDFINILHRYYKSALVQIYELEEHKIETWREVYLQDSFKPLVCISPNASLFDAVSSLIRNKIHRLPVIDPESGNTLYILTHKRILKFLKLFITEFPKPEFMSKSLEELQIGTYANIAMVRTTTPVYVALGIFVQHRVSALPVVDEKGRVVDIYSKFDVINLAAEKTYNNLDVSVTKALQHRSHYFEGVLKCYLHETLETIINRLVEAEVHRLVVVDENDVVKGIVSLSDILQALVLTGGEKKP
UniProt Q9ESK9: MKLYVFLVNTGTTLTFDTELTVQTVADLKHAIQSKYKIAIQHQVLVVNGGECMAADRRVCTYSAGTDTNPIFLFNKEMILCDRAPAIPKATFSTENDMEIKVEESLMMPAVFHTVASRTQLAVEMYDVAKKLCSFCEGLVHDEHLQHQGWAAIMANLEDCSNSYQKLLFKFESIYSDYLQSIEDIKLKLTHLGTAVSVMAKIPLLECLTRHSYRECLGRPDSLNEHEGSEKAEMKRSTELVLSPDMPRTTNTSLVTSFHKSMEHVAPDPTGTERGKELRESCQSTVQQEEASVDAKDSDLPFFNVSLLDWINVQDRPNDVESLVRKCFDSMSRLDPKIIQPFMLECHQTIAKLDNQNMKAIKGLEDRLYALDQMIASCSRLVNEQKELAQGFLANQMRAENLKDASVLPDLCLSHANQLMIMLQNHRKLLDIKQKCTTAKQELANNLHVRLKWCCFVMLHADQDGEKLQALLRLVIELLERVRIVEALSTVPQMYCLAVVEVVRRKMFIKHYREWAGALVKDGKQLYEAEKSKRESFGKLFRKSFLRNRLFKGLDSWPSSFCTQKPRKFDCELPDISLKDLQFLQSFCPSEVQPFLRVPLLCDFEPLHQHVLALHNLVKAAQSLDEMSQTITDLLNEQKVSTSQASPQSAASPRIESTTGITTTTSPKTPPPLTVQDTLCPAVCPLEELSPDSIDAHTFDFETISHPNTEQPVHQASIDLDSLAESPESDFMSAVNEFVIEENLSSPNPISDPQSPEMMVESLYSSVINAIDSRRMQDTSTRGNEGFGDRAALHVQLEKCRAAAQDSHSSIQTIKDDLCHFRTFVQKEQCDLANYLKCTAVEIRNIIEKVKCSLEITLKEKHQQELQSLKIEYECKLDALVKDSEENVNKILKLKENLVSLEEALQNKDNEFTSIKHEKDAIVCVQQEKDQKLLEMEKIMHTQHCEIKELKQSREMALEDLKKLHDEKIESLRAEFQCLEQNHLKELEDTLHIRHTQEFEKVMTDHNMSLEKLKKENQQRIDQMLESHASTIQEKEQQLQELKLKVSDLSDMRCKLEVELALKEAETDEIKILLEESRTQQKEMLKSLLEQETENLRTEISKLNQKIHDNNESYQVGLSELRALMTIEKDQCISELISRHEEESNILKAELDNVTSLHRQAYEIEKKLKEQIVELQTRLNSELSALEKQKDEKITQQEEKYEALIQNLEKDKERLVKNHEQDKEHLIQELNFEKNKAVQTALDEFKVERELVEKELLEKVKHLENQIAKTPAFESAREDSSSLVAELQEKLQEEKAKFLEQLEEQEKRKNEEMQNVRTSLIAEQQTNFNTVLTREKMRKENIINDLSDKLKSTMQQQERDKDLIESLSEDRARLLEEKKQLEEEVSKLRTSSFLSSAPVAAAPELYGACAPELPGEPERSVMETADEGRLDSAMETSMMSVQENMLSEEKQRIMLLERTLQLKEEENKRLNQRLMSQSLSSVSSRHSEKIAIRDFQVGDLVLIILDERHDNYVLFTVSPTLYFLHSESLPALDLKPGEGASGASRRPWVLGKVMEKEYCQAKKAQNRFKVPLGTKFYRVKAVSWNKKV

What was measured:
GFP-WIPI4 (human) [1] = molecular target: T1, GFP-WIPI4 (human) (UniProt Q9Y484); assay: co-IP; U2OS expressing GFP or GFP-WIPI4 with myc-tagged AMPKα1, α2, β1 or γ1, fed conditions; anti-GFP immunoprecipitation, anti-myc immunoblotting
T1 sequence: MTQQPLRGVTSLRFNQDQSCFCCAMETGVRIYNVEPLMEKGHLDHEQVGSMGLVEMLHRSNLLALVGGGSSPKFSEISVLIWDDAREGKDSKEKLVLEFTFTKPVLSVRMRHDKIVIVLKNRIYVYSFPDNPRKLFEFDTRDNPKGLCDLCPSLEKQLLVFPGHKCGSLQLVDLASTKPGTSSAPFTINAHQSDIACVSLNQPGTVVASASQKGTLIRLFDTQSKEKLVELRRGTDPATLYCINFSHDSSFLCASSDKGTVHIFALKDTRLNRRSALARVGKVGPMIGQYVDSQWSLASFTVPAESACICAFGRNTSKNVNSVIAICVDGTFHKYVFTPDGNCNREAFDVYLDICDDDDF

[2] = molecular target: GFP-WIPI3 expressed in mouse embryonic fibroblasts (human) (UniProt Q5MNZ6); assay: co-IP; MEFs transiently expressing GFP-WIPI3 or GFP, fed or starved 3 h; anti-GFP immunoprecipitation, anti-FIP200 immunoblotting
GFP-WIPI4 (human) [3] = molecular target: T1, GFP-WIPI4 (human); assay: co-IP; co-immunoprecipitation of endogenous NudC with WIPI proteins (Supplementary Fig. 4)
GFP-WIPI3 (human) [4] = molecular target: GFP-WIPI3 (human) (UniProt Q5MNZ6); assay: as above
GFP-WIPI2B (human) = molecular target: T2, GFP-WIPI2B (human) (UniProt Q9Y4P8); assay: as above
T2 sequence: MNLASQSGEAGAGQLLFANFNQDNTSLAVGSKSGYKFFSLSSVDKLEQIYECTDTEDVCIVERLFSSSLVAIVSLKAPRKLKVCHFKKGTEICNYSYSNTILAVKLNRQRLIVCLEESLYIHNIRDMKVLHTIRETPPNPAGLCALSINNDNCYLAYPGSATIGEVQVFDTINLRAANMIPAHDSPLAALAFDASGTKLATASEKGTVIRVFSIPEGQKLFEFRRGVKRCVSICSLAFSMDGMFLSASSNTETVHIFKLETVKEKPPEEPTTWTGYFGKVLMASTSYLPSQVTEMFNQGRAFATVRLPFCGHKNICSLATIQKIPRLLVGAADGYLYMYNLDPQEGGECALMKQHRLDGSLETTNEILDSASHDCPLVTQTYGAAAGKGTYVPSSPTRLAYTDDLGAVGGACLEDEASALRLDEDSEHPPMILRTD

GFP-WIPI1 (human) = molecular target: T3, GFP-WIPI1 (human) (UniProt Q5MNZ9); assay: as above
T3 sequence: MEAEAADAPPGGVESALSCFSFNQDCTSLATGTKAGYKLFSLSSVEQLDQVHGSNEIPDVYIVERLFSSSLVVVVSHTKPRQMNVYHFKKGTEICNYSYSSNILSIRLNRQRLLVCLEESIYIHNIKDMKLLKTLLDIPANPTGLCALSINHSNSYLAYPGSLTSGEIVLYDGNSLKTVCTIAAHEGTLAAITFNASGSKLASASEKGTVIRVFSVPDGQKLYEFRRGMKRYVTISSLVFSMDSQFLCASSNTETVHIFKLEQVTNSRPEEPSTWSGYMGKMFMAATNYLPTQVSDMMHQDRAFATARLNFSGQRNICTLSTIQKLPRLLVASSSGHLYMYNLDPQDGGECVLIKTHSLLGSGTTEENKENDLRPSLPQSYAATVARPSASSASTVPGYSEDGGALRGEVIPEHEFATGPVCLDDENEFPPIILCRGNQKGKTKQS

GFP-WIPI2D (human) = molecular target: T4, GFP-WIPI2D (human) (UniProt Q9Y4P8); assay: as above
T4 sequence: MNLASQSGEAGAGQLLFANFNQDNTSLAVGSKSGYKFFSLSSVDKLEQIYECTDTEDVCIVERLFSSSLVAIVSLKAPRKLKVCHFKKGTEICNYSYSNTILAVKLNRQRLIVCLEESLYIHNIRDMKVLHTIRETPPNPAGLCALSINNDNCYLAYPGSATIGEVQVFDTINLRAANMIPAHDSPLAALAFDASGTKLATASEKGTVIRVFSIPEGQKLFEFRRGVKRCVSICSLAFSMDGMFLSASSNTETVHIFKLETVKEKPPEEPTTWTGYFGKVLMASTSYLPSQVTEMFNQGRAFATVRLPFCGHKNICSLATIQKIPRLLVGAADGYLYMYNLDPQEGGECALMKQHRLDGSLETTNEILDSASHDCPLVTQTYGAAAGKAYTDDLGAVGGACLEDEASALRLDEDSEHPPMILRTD

GFP-WIPI4 (human) [5] = molecular target: T1, GFP-WIPI4 (human); assay: co-IP; U2OS expressing myc-ATG2A and GFP, GFP-WIPI4 WT or GFP-WIPI4 mutants; anti-GFP immunoprecipitation, anti-myc immunoblotting
[6] = molecular target: T5, GFP-WIPI4-R232A/R233A (human) (UniProt Q9Y484); assay: as above
T5 sequence: T1 sequence with R232A, R233A

GFP-WIPI4 (human) [7] = molecular target: T1, GFP-WIPI4 (human); assay: co-IP; stable GFP-WIPI4 or GFP U2OS cells expressing myc-ATG2A; fed, starved 3 h, starved with AICAR, without glucose or without glucose/glutamine; anti-GFP immunoprecipitation, anti-myc, anti-AMPKα, anti-Ulk1 immunoblotting
GFP-WIPI3 (human) [8] = molecular target: GFP-WIPI3 (human) (UniProt Q5MNZ6); assay: co-IP; stable GFP-WIPI U2OS cells; fed, starved (15 min to 3 h) or starved with LY294002; anti-GFP immunoprecipitation, anti-TSC2, anti-phospho-TSC2 (S1387), anti-TSC1 immunoblotting
myc-ATG2A = myc-ATG2A (UniProt Q2TAZ0); assay: co-IP; U2OS transiently expressing GFP-tagged WIPI proteins and myc-ATG2A, starved; anti-myc immunoprecipitation, anti-GFP immunoblotting

Molecule: endogenous NudC (from UniProt Q9Y266 1-331)
binding (GFP-WIPI4 (human) [3]): binds
binding (GFP-WIPI3 (human) [4]): no binding
binding (GFP-WIPI2B (human)): binds
binding (GFP-WIPI1 (human)): binds
binding (GFP-WIPI2D (human)): binds

Molecule: myc-ATG2A (from UniProt Q2TAZ0 1-1938)
binding (GFP-WIPI4 (human) [5]): binds
binding [6]: binds
binding (GFP-WIPI4 (human) [7]): binds

B1: endogenous TSC1 (protein, UniProt Q92574 1-1164)
chain: MAQQANVGELLAMLDSPMLGVRDDVTAVFKENLNSDRGPMLVNTLVDYYLETSSQPALHILTTLQEPHDKHLLDRINEYVGKAATRLSILSLLGHVIRLQPSWKHKLSQAPLLPSLLKCLKMDTDVVVLTTGVLVLITMLPMIPQSGKQHLLDFFDIFGRLSSWCLKKPGHVAEVYLVHLHASVYALFHRLYGMYPCNFVSFLRSHYSMKENLETFEEVVKPMMEHVRIHPELVTGSKDHELDPRRWKRLETHDVVIECAKISLDPTEASYEDGYSVSHQISARFPHRSADVTTSPYADTQNSYGCATSTPYSTSRLMLLNMPGQLPQTLSSPSTRLITEPPQATLWSPSMVCGMTTPPTSPGNVPPDLSHPYSKVFGTTAGGKGTPLGTPATSPPPAPLCHSDDYVHISLPQATVTPPRKEERMDSARPCLHRQHHLLNDRGSEEPPGSKGSVTLSDLPGFLGDLASEEDSIEKDKEEAAISRELSEITTAEAEPVVPRGGFDSPFYRDSLPGSQRKTHSAASSSQGASVNPEPLHSSLDKLGPDTPKQAFTPIDLPCGSADESPAGDRECQTSLETSIFTPSPCKIPPPTRVGFGSGQPPPYDHLFEVALPKTAHHFVIRKTEELLKKAKGNTEEDGVPSTSPMEVLDRLIQQGADAHSKELNKLPLPSKSVDWTHFGGSPPSDEIRTLRDQLLLLHNQLLYERFKRQQHALRNRRLLRKVIKAAALEEHNAAMKDQLKLQEKDIQMWKVSLQKEQARYNQLQEQRDTMVTKLHSQIRQLQHDREEFYNQSQELQTKLEDCRNMIAELRIELKKANNKVCHTELLLSQVSQKLSNSESVQQQMEFLNRQLLVLGEVNELYLEQLQNKHSDTTKEVEMMKAAYRKELEKNRSHVLQQTQRLDTSQKRILELESHLAKKDHLLLEQKKYLEDVKLQARGQLQAAESRYEAQKRITQVFELEILDLYGRLEKDGLLKKLEEEKAEAAEAAEERLDCCNDGCSDSMVGHNEEASGHNGETKTPRPSSARGSSGSRGGGGSSSSSSELSTPEKPPHQRAGPFSSRWETTMGEASASIPTTVGSLPSSKSFLGMKARELFRNKSESQCDEDGMTSSLSESLKTELGKDLGVEAKIPLNLDGPHPSPPTPDSVGQLHIMDYNETHHEHS
binding (GFP-WIPI3 (human) [8]): binds

Other lines, results leading:

binding (GFP-WIPI4 (human) [1]): binds
Molecule: Myc-AMPKγ1 (from UniProt P54619 1-331)

binding [2]: binds
Molecule: endogenous FIP200 (MEFs) (from UniProt Q9ESK9 1-1588)

binding (myc-ATG2A): binds
B2: GFP-WIPI4 (protein, UniProt Q9Y484 1-360)
chain: T1 sequence
